Test results as given in the antibiotic and cytotoxicity screens of Wong et al. (2023).
Some of the results follow.

Tests used:
HSkMC = human skeletal muscle cells; test: cytotoxicity call (relative viability < 0.9); settings: 10 µM
HepG2 = test: cytotoxicity call (relative viability < 0.9); settings: 10 µM
S. aureus RN4220 = test: growth inhibition call (relative growth <= 0.2); settings: 50 µM

C=C/C=C/[C@@H]1C(=C)CN([C@@H](Cc2ccccc2)C(=O)OC)[C@H]1[C@@H](O)CCn1cc(CCC(=O)NO)nn1
inactive: cytotoxicity call (HSkMC) | cytotoxicity call (HepG2) | growth inhibition call (S. aureus RN4220)

Cc1ccc(S(=O)(=O)Nc2ccc3c(c2)C(=O)N([C@H](C)CO)C[C@@H](C)[C@@H](CN(C)C(=O)NC2CCCCC2)OCCCC[C@@H](C)O3)cc1
inactive: cytotoxicity call (HSkMC) | cytotoxicity call (HepG2) | growth inhibition call (S. aureus RN4220)

C[C@@H]1CN([C@@H](C)CO)C(=O)c2cc(NC(=O)Nc3ccc(C(F)(F)F)cc3)ccc2O[C@H]1CN(C)Cc1ccc(Cl)c(Cl)c1
inactive: cytotoxicity call (HSkMC) | cytotoxicity call (HepG2) | growth inhibition call (S. aureus RN4220)
